About 200 (0.44%) of roughly 45,000 compounds were called active. Roughly 7% stayed inconclusive and do not appear here. The call rests on the fitted dose curve; in most records, active means well fitted activation curve with a large enough effect; inconclusive means small, poorly fitted or top-dose-only effect; inactive means no such curve, though single readings can be large or run the other way. The list shows a part of the results.

The test in a line: qHTS of TDP-43 Inhibitors: NCGC Sytravon Library Screen. Further: 0% is about no effect; nearly all actives have a fitted effect of over 55% in size. To be noted: yeast TDP-43 toxicity rescue, BacTiter-Glo growth, 24 h; series mostly up to 46.1 µM; growth rescue (activation): at the top concentration. An outline of the steps: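 TDP-43-expressing yeast, pregrown in raffinose, seeded at OD600 0.02 in galactose medium with compound for 24 hr at 30 deg C. Growth read by BacTiter-Glo luminescence, so rescue of toxicity appears as activation.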
Consider `COc1ccc(C(=O)O)cc1S(=O)(=O)Nc1ccc(C)cc1`, for which the “growth rescue (activation)” value was inactive: 0.952%.

`Cc1cccc(OCC(=O)OCC(=O)Nc2sccc2C(N)=O)c1`: the “growth rescue (activation)” value was inactive: -0.0431%.

For the molecule `O=C(/C=C/c1ccc(Br)cc1)NCc1cccs1`, the “growth rescue (activation)” value is inactive: 23.7%.

For `O=C(CCC(=O)Nc1ccc(Br)cc1)N/N=C/c1cc([N+](=O)[O-])ccc1O`, the “growth rescue (activation)” value was inactive: 4.99%.

Consider `Cc1cc(OCc2cc(C(=O)N(C)C3CCOCC3)no2)cc(C)c1Cl`, for which the “growth rescue (activation)” value is inactive: 23.3%.

Consider `CC(C)N(c1ccccc1)c1ccc(NC(=O)COC(=O)CCN2C(=O)c3cccc([N+](=O)[O-])c3C2=O)cc1`, for which the “growth rescue (activation)” value is inactive: -1.3%.

Turning to `CCNCC(=O)N1c2ccccc2CCc2ccc(NC(=O)OC(C)C)cc21`, the “growth rescue (activation)” value is inactive: 2.88%.

In the case of `Cc1ccc(C(=O)N(CCN2CCCCC2)CC2CCCN(C3CCCC3)C2)s1` (stereo not drawn), the “growth rescue (activation)” value is inactive: -12.4%.

Turning to `CCN(CC)S(=O)(=O)c1ccc(N2CCOCC2)c(NC(=O)C2CCCC2)c1`, the “growth rescue (activation)” value is inactive: 10.4%.

For the molecule `C[C@@H]1CN(Cc2nc(-c3ccc(Cl)cc3)no2)C[C@H](C)O1`, the “growth rescue (activation)” value was inactive: 9.26%.

In the case of `Cc1c(NC(=O)NC2CCCCC2)cccc1[N+](=O)[O-]`, the “growth rescue (activation)” value was inactive: -11.3%.

Take `CC(=O)N1CCN(C(=O)COc2ccc(N(C)S(=O)(=O)c3cccs3)cc2)CC1`: the “growth rescue (activation)” value is inactive: -6.83%.

Consider `O=C(Nc1nccs1)c1ccc(S(=O)(=O)N2CCOCC2)cc1`, for which the “growth rescue (activation)” value is inactive: 16.3%.

Regarding `CCN(CC)CCN1C(=O)C2C(C(=O)Nc3cccc(C)c3)C3C=CC2(O3)C1C(=O)NC1CCCC(C)C1C` (stereo not drawn), the “growth rescue (activation)” value is inactive: 8.53%.

In the case of `CCCS(=O)(=O)NC(=O)C1(C)CCCN(C(=O)c2c(OC)cccc2OC)C1` (stereo not drawn), the “growth rescue (activation)” value was inactive: -5.68%.

`Cc1cc(SCC(=O)Nc2ccc(O)cc2)n2nc(C)c(-c3ccccc3)c2n1`: the “growth rescue (activation)” value is inactive: 37.4%.

In the case of `O=C(CSc1nc(-c2ccccc2)cc(=O)[nH]1)NCc1ccc2c(c1)OCO2`, the “growth rescue (activation)” value was inactive: 14.2%.

Take `CC12COC3(C(=O)Nc4ccc5ccccc5c4)CC1CCC32C` (stereo not drawn): the “growth rescue (activation)” value was inactive: 17.6%.

With `NC(CCc1ccccc1)c1csc(Nc2ccc(C(=O)NCCCO)cn2)n1` (stereo not drawn), the “growth rescue (activation)” value was inactive: 5.9%.

Consider `COCCNC(=O)COc1cccc2c1OC(C)(C)C2`, for which the “growth rescue (activation)” value is inactive: 4.4%.

Regarding `CCOC(=O)N=Nc1c(O)n(C)c2ccccc12`, the “growth rescue (activation)” value is inactive: 20.9%.

Turning to `O=C(c1ccccc1Cl)N1CCN(S(=O)(=O)c2cccs2)CC1`, the “growth rescue (activation)” value is inactive: 25.9%.

On to `Cc1csc(NC(=O)c2cnc3ccccc3n2)n1`, for which the “growth rescue (activation)” value is inactive: 16.9%.

In the case of `COc1ccc(C)cc1NC(=O)CN(c1ccc(C)cc1)S(C)(=O)=O`, the “growth rescue (activation)” value was inactive: 9.47%.

On to `CN(C)c1ccc(NC(=O)Nc2nc(C(N)C3CCCCC3)cs2)cc1` (stereo not drawn), for which the “growth rescue (activation)” value was inactive: 1.69%.

Take `CCOC(=O)c1cc(-c2ccccc2)sc1N`: the “growth rescue (activation)” value is inactive: 44.7%.

With `CCC(=O)NC(=S)Nc1ccc(NC(=O)c2cccc([N+](=O)[O-])c2C)cc1`, the “growth rescue (activation)” value is inactive: 9.44%.

Consider `Cc1cc(C)c(NS(=O)(=O)c2ccc(NC(=O)c3cccs3)cc2)c(C)c1`, for which the “growth rescue (activation)” value is inactive: 18.8%.

Turning to `COc1ccc(-c2cnc(SCC(=O)Nc3ccc4c(c3)OCO4)n2Cc2ccco2)cc1`, the “growth rescue (activation)” value is inactive: 29.4%.

`CCCn1c(SCC(=O)N(C)C2CCS(=O)(=O)C2)nc2sc3c(c2c1=O)CCC3` (stereo not drawn): the “growth rescue (activation)” value was inactive: -5.58%.

`CN(C)S(=O)(=O)c1cccc(NC(=O)CSc2ncnc3ccccc23)c1`: the “growth rescue (activation)” value is inactive: -15.7%.

Regarding `CCn1ncc(CN2CCN(Cc3ccc(OC)c(C)c3C)C(CCO)C2)c1C` (stereo not drawn), the “growth rescue (activation)” value is inactive: 6.58%.

With `COC(=O)c1ccc(C(=O)OC)c(NC(=O)CSCc2ccc(Cl)cc2)c1`, the “growth rescue (activation)” value was inactive: 6.53%.

Regarding `CCC1CCCCN1C(=O)CSc1nc(C)cc(C)n1` (stereo not drawn), the “growth rescue (activation)” value was inactive: 0.665%.

Consider `COc1ccc(C2CCCN2C(=S)Nc2cccc(C)c2)cc1OC` (stereo not drawn), for which the “growth rescue (activation)” value was inactive: 23.3%.

Take `Cn1c(SCC(=O)NC2CCCC2)nnc1-c1cccs1`: the “growth rescue (activation)” value is inactive: -3.85%.

In the case of `COc1ccc(OC)c(CCNC(=O)CCCc2nnc3n(C)c(=O)c4sccc4n23)c1`, the “growth rescue (activation)” value is inactive: 11.5%.

Turning to `CC1CC(=O)Nc2ccc([N+](=O)[O-])cc2N1C` (stereo not drawn), the “growth rescue (activation)” value is inactive: 0.707%.

Turning to `O=C(COC(=O)c1ccc(Cl)cc1)NCC1CCCCC1`, the “growth rescue (activation)” value was inactive: -26.6%.

As for `CSc1sc(C)cc1/C=N/O`, the “growth rescue (activation)” value is inactive: 2.16%.

Take `CCOC(=O)c1[nH]cnc1C(=O)Nc1cccc(Cl)c1`: the “growth rescue (activation)” value is inactive: 9.55%.

On to `O=C(N/N=C/c1cc2c(cc1[N+](=O)[O-])OCO2)c1cccnc1`, for which the “growth rescue (activation)” value was inactive: -17.1%.

Consider `COc1cc(NC(=O)C2(C)CCCN2C)cc(OC)c1OC` (stereo not drawn), for which the “growth rescue (activation)” value is inactive: -2.41%.

`Cc1ccc(S(=O)(=O)N(C)c2c(C)ccc(S(=O)(=O)N3CCN(C=O)CC3)c2C)cc1`: the “growth rescue (activation)” value was inactive: 18.3%.

In the case of `Cc1[nH]nc2c1C(C(C)C)C(C#N)=C(N)O2` (stereo not drawn), the “growth rescue (activation)” value is inactive: -7.19%.

Regarding `O=C(OCc1cc([N+](=O)[O-])cc2c1OCOC2)c1ccccn1`, the “growth rescue (activation)” value was inactive: -0.592%.

Regarding `Cc1ccc(S(=O)(=O)Nc2cccc(Cl)c2)cc1NC(=O)c1cccnc1`, the “growth rescue (activation)” value was inactive: 2.93%.

As for `O=C(CCl)N1CCN(C(=O)C2COc3ccccc3O2)CC1` (stereo not drawn), the “growth rescue (activation)” value is inactive: 5%.

In the case of `Cc1cccc(-n2c(N)c(-c3nc4ccccc4n3C)c3nc4ccccc4nc32)c1`, the “growth rescue (activation)” value was inactive: 5.16%.

Turning to `Cc1ccc(NC(=O)c2cc(-c3ccc4c(c3)OCO4)on2)cc1`, the “growth rescue (activation)” value is inactive: 10.6%.

With `O=S(=O)(NCCc1ccccc1)c1ccc(-n2cnnn2)cc1`, the “growth rescue (activation)” value is inactive: -6.11%.

With `COc1cc(NC(=O)c2cc(C)nc3ccccc23)cc(OC)c1OC`, the “growth rescue (activation)” value is inactive: 6.67%.

Consider `C/C(=N\NC(=O)Cn1nc(C)c([N+](=O)[O-])c1C)c1ccc(Cl)s1`, for which the “growth rescue (activation)” value is inactive: 5.27%.

The values are drawn from PubChem BioAssay AID1347073 (National Center for Advancing Translational Sciences (NCATS), 2019).
